Results from publication PMC5655503.
Results are given in words; binding and its absence hold for the method and conditions named. Binding seen in cells or lysates may run through a third protein. Some entries that bind do so weakly or less than the wild type.

Amino acid sequences for entries named in this document (tags omitted). A change or cut given only in a name is not applied to a line headed by its entry. Chains listed by the source or under a name are the forms on record and can include a tag or linker.
UniProt P15381: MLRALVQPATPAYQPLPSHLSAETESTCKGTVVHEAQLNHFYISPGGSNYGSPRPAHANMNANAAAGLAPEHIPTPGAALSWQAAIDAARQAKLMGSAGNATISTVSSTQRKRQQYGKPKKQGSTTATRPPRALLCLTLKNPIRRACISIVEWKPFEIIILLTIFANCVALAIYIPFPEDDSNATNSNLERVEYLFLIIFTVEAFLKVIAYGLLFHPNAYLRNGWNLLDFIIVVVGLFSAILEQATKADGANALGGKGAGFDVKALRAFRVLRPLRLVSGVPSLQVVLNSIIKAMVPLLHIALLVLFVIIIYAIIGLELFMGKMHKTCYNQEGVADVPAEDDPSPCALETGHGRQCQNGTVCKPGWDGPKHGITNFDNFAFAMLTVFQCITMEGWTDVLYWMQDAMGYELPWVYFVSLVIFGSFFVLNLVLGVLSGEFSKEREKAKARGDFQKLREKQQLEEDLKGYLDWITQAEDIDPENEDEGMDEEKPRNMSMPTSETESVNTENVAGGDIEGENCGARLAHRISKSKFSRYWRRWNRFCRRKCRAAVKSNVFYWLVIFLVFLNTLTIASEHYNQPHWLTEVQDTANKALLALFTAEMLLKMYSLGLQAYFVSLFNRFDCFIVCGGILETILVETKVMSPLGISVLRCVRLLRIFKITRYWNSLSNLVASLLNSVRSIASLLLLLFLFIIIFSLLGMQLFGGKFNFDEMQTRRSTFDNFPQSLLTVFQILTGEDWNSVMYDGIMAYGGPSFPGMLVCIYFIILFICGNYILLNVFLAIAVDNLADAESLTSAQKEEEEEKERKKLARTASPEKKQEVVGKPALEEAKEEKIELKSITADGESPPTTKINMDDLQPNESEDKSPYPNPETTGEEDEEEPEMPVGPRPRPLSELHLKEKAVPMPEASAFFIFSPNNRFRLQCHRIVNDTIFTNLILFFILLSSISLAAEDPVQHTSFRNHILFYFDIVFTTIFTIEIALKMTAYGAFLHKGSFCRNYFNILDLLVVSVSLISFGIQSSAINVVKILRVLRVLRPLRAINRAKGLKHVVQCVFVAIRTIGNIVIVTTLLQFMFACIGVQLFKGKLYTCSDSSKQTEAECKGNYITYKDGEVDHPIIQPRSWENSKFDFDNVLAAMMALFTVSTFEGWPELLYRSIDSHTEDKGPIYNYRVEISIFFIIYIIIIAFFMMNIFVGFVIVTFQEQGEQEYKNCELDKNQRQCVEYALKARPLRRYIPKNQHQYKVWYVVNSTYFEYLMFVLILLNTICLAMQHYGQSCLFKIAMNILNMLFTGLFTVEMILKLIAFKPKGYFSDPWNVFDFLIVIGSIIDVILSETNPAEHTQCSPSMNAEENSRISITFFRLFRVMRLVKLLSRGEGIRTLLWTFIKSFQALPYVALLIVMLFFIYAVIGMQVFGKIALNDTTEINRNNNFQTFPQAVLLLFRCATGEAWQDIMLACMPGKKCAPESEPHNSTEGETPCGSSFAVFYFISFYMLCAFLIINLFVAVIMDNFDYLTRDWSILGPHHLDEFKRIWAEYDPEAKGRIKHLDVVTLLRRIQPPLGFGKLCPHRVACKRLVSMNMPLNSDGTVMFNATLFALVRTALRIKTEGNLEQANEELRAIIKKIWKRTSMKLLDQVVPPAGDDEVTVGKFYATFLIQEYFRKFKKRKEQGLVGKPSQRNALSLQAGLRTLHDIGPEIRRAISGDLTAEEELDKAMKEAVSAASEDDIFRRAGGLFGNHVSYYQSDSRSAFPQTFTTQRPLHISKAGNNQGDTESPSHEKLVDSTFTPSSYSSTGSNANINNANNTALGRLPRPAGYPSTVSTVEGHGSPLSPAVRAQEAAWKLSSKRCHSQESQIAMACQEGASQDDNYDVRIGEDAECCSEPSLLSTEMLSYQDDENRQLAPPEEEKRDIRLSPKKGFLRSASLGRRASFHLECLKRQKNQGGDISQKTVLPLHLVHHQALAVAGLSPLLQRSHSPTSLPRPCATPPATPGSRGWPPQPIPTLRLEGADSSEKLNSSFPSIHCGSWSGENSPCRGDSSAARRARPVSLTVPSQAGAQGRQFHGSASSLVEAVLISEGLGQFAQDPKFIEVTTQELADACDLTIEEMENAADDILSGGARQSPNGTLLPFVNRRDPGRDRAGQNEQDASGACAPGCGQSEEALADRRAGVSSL
CaV1.2–HA (Glu-331) (P15381, form named): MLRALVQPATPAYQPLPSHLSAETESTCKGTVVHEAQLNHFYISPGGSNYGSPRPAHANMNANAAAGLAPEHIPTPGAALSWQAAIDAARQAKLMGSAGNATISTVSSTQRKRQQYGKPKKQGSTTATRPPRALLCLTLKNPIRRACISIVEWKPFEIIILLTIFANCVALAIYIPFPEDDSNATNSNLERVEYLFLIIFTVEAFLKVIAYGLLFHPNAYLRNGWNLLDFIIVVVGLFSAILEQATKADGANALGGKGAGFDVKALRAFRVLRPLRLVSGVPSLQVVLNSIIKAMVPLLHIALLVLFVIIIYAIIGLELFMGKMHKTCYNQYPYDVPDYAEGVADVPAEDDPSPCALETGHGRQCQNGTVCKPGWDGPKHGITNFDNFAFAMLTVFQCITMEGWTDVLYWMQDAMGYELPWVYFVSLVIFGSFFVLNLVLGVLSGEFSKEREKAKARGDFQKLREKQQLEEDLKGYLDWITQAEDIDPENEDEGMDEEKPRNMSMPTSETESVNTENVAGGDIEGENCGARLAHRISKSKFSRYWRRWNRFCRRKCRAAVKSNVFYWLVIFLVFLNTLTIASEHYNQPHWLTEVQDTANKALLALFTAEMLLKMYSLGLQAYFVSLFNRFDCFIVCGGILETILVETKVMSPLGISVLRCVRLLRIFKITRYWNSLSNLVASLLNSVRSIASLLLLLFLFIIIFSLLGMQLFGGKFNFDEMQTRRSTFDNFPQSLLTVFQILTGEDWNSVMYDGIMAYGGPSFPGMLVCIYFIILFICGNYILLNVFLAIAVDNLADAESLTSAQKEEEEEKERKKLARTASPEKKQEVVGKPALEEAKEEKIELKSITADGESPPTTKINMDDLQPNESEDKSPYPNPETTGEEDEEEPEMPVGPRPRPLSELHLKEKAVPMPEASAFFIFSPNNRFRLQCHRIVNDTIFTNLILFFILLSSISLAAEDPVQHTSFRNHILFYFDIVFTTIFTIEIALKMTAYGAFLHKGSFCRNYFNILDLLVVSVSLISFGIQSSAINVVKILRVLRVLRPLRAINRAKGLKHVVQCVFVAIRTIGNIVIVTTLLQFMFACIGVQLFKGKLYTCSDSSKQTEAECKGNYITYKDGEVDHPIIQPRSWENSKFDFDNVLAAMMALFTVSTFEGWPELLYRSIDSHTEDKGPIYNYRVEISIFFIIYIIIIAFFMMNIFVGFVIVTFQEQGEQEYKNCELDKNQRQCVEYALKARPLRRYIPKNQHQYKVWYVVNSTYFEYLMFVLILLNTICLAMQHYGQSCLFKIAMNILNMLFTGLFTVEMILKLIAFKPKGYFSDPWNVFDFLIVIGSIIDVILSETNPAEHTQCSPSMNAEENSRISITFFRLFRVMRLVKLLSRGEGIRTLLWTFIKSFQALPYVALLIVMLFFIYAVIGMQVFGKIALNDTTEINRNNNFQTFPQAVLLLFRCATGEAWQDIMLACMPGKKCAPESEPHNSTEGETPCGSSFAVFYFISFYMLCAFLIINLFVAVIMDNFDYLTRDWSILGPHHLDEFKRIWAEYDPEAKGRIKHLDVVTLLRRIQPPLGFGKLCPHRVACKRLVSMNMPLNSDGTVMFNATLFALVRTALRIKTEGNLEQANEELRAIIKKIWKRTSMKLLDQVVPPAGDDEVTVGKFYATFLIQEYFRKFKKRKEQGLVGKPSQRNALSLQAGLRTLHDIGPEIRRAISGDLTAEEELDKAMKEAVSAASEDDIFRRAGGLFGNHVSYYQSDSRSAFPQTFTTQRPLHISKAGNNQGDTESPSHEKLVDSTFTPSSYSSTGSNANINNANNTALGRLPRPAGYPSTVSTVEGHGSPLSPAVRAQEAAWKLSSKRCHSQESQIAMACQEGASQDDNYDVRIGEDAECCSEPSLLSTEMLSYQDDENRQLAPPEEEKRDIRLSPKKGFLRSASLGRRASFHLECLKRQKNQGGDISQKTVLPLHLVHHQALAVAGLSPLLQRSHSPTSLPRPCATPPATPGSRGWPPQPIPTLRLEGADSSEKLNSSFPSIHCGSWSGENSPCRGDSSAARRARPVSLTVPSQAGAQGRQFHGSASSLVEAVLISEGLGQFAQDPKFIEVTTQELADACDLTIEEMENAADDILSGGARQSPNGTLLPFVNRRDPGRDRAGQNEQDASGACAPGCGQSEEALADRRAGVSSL
CaV1.2–HA (Asp-710) (P15381, form named): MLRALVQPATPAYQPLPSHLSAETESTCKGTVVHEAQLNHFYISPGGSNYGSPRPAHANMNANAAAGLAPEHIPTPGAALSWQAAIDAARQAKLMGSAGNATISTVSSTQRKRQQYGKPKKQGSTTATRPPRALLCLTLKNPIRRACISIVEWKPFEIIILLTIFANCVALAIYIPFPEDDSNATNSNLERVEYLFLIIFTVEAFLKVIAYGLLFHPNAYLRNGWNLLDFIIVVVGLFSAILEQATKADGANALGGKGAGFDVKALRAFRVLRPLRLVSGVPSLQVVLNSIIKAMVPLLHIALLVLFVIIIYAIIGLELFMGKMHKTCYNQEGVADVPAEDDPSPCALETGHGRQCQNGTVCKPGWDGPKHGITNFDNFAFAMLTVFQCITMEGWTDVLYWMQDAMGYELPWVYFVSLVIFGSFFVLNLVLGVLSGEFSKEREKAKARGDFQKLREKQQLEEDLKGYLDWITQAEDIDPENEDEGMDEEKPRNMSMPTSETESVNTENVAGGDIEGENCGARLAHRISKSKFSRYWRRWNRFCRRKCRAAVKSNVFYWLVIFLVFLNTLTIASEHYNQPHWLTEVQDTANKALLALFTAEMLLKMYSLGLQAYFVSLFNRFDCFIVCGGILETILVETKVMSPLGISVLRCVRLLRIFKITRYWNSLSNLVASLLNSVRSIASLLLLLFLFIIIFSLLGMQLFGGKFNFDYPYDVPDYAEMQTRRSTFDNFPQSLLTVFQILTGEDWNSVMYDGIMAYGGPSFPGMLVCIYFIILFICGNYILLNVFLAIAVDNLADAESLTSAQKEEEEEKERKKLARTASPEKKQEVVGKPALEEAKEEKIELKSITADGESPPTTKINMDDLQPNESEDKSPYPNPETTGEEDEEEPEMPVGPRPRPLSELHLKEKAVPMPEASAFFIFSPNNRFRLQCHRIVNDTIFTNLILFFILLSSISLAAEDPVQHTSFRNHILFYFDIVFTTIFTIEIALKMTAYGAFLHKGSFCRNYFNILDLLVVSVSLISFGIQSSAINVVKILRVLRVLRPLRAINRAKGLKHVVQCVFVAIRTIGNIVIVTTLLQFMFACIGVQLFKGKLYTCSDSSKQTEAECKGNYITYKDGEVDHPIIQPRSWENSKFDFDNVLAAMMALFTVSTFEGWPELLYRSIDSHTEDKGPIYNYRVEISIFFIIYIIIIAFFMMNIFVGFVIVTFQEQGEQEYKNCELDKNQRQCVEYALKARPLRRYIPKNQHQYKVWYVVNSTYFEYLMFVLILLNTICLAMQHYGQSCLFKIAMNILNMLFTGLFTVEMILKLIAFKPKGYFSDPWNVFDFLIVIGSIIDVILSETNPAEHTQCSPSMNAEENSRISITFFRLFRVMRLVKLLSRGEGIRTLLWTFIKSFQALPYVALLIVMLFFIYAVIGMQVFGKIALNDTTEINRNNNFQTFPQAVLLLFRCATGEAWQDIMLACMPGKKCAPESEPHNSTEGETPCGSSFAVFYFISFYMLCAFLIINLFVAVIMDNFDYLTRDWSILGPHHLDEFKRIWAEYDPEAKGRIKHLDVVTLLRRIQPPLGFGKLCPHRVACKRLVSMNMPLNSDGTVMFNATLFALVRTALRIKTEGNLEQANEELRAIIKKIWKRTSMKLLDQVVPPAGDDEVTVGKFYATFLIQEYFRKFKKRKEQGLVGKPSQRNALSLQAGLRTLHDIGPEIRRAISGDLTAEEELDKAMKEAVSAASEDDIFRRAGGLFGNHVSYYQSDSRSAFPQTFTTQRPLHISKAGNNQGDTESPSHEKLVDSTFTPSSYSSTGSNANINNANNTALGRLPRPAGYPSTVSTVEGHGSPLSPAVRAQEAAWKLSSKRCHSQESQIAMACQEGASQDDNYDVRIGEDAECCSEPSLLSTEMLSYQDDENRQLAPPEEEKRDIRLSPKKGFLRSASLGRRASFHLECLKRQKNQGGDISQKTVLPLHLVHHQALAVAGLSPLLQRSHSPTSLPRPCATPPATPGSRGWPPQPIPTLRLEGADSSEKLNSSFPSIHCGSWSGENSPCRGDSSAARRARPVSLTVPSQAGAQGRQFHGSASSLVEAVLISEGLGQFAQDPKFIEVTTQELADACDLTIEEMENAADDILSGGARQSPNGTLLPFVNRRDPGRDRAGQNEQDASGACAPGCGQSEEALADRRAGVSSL

Experiments:
Experiment in all cases: co-IP; HEKT cells co-transfected with CaVβ3–c-Myc, CaV1.2 WT or mutant and mCherry–CaVα2δ1–HA; homogenised in 20 mM NaMOPS pH 7.4, 300 mM NaCl, 1% digitonin; overnight with anti-c-Myc magnetic beads to capture CaVβ3; washed in 0.2% digitonin; blots with anti-CaV1.2, anti-CaVα2δ1 (1, 20 and 200 s exposures) and anti-CaVβ3
[1] = target: CaVβ3–c-Myc (rat) (UniProt P54287)
[2] = target: CaV1.2–HA (Glu-331) (rabbit) (UniProt P15381)
[3] = target: CaV1.2 D181R (rabbit) (UniProt P15381)
[4] = target: CaV1.2 D181E (rabbit) (UniProt P15381)
[5] = target: CaV1.2 WT (rabbit) (UniProt P15381)
[6] = target: CaV1.2–HA (Asp-710) (rabbit) (UniProt P15381)
[7] = target: CaV1.2 D180A (rabbit) (UniProt P15381)
[8] = target: CaV1.2 R1119A (rabbit) (UniProt P15381)
[9] = target: CaV1.2 E179A (rabbit) (UniProt P15381)
[10] = target: CaV1.2 D181G (rabbit) (UniProt P15381)

Row | Substance | binding [1] | other results
1 | CaV1.2 D180A (from UniProt P15381 1-2171) | binds | 
2 | CaV1.2 D181E (from UniProt P15381 1-2171) | binds | 
3 | mCherry–CaVα2δ1–HA (from UniProt P54290 25-1091) |  | binding [2]: binds; binding [3]: no binding; binding [4]: binds; binding [5]: binds; binding [6]: binds; binding [7]: binds; binding [8]: binds; binding [9]: binds; binding [10]: no binding
4 | CaV1.2–HA (Ser-182) (from UniProt P15381 1-2171) | binds | 
5 | CaV1.2 E179A (from UniProt P15381 1-2171) | binds | 
6 | CaV1.2–HA (Asp-710) (from UniProt P15381 1-2171) | binds | 
7 | CaV1.2 WT (from UniProt P15381 1-2171) | binds | 
8 | CaV1.2 D181A (from UniProt P15381 1-2171) | binds | 
9 | CaV1.2 D180E (from UniProt P15381 1-2171) | binds | 
10 | CaV1.2–HA (Glu-331) (from UniProt P15381 1-2171) | binds | 
